Screen size: about 310,000 compounds; about 2,200 (0.71%) showed an effect of 50% or more. The effect is printed as a negative number. The list shows a part of the results.
Target: human ether-à-go-go-related gene (hERG) potassium channel (human, UniProt Q12809)
Test: primary screen, population patch clamp on CHO cells stably expressing hERG

human ether-à-go-go-related gene (hERG) potassium channel, sequence (Q12809 whole entry, looked up): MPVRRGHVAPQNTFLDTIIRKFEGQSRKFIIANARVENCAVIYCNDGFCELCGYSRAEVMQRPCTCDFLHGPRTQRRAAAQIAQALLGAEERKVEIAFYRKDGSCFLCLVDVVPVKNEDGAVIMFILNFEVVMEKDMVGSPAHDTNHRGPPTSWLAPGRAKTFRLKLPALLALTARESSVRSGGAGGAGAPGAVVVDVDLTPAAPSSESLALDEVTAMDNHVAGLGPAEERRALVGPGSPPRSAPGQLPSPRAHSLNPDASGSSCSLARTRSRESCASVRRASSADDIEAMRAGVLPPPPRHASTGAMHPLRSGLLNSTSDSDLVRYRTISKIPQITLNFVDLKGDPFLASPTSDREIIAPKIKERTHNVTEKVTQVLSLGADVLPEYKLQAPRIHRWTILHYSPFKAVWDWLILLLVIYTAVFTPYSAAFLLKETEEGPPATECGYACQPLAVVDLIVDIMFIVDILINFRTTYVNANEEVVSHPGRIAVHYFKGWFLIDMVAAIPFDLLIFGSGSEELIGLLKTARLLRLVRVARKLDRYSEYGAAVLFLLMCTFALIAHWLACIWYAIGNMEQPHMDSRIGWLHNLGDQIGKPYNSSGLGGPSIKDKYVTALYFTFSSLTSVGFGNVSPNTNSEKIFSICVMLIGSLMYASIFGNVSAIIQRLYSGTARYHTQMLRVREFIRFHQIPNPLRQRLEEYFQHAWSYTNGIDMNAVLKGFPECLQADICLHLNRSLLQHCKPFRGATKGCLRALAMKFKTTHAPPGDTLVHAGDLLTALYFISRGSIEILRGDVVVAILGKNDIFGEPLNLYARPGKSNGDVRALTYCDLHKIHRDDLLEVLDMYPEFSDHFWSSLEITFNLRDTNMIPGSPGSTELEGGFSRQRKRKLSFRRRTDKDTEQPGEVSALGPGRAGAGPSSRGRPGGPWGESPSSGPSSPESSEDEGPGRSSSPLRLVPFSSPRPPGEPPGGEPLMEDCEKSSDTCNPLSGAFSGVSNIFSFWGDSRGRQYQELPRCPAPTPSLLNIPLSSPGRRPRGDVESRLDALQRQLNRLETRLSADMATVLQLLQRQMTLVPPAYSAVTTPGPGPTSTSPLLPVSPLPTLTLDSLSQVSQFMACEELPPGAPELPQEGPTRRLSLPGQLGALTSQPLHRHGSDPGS

Row | Compound | hERG current change (%, negative = inhibition) at 1uM
1 | CCOC(=O)C1=C(C)C(c2ccc(OC)cc2)NC(=O)N1 (centres unmarked) | 12.7%
2 | Cc1ccc(N(CC(=O)N2CCCCC2)S(=O)(=O)c2ccc(C)cc2)cc1 | 7.07%
3 | S=C(c1ccc(N2CCOCC2)cc1)N1CCOCC1 | 14.3%
4 | Cc1cc(C)n2nc(C(=O)NC3CCCc4ccccc43)nc2n1 (centres unmarked) | 11.6%
5 | N#CCc1nnc2n1-c1ccccc1CCC2 | -8.44%
6 | Cc1ccc(S(=O)(=O)N2CCN(C(=O)C3CSC4(C)CCC(=O)N34)CC2)cc1C (centres unmarked) | 1.82%
7 | COC(=O)CSc1nnc(CNC(=O)c2ccc(S(=O)(=O)N3CCCCC3)cc2)n1C | 0.861%
8 | O=C1/C(=C/c2cccc([N+](=O)[O-])c2)Oc2cc(O)ccc21 | 12.7%
9 | Cc1cc(C)nc(/N=C(\N)Nc2ccc(S(N)(=O)=O)cc2)n1 | 14.1%
10 | O=C(CSc1nc2[nH]ncc2c(=O)[nH]1)Nc1ccc(Cl)c(Cl)c1 | 9.26%
11 | Cc1[nH][nH]c(=O)c1C(c1ccc(-c2cccc(Cl)c2)o1)c1c(C)[nH][nH]c1=O | 11.4%
12 | COc1c(C)cc(C(=O)C2CCCN(Cc3cnc(N4CCOCC4)s3)C2)cc1C (centres unmarked) | 29.4%
13 | COC(=O)C1=C(C)OC(N)=C(C#N)C1c1ccsc1 (centres unmarked) | -2.21%
14 | O=C1c2cccc3c(Cl)ccc(c23)C(=O)N1O | 12.8%
15 | COCCSc1ccccc1C(=O)N1CCc2ccccc21 | 12.2%
16 | CC(C)c1ccc(C(C)NCCS(=O)(=O)c2ccc(Cl)cc2)cc1 (centres unmarked) | -4%
17 | COC(=O)c1ccc(/C=C/c2c(-c3ccc(OC)cc3)oc3ccc(N4CCOCC4)cc23)cc1 | 20.1%
18 | COc1ccc(C2N(c3cc(Cl)ccc3OC)C(=O)C3CCCN32)c(OC)c1 (centres unmarked) | 3.14%
19 | COc1ccccc1C1(CC(=O)O)CCOC(C(C)C)C1 (centres unmarked) | 1.68%
20 | COc1ccc(OC)c(/C=N/NC(=O)Cc2nc3ccccc3[nH]2)c1 | -3.24%
21 | COC(=O)c1c(NC(=O)CSc2nnc3ccccn23)sc2c1CCC2 | -6.76%
22 | CC(=O)c1ccccc1NC(=O)CCCNC(=O)c1ccc(Cl)cc1 | 13.1%
23 | COc1ccccc1C(=O)C1CCCN(C(=O)Nc2ccccc2F)C1 (centres unmarked) | 11.1%

Row | Compound | hERG current change (%, negative = inhibition) at 1uM
24 | O=C1Nc2c(ccc(Cl)c2Cl)C(=O)C1(F)c1ccccc1 (centres unmarked) | 10.5%
25 | O=C(O)c1cc2c(cc1NC(=O)C1CCCC1)OCCO2 | 11.2%
26 | CC1(C)CC(=O)C(C=NCC(N)=O)=C(O)C1 | -18.4%
27 | CCC(C)NC(=O)C1CCC(=O)N(c2ccc3c(c2)OCO3)C1c1ccc(OC)cc1 (centres unmarked) | 12.4%
28 | Clc1ccc(CNc2ccc(CNc3ncn[nH]3)cc2)c(Cl)c1 | 10%
29 | CCOC(=O)C(=O)N=Nc1c(O)[nH]c2ccccc12 | 1.57%
30 | N#CC1=C(N)C(C#N)(C#N)[C@H](c2ccsc2)[C@H]2COCC=C12 | 7.06%
31 | O=C(Nc1ccc(Oc2ccc(S(=O)(=O)N3CCOCC3)cn2)cc1)c1ccco1 | -2.13%
32 | CC(C)(C)c1cc(C(=O)N/N=C/c2ccc([N+](=O)[O-])s2)n[nH]1 | 8.78%
33 | C=CCN(C(=O)CCC(=O)Nc1cc(C)on1)C(C(=O)NC1CCCC1)c1ccc(Cl)cc1 (centres unmarked) | -12.1%
34 | COc1ccc(N2CCN(C3CC(=O)NC3=O)CC2)cc1 (centres unmarked) | 9.22%
35 | COc1ccc2oc(-c3ccc(C)c(NC(=O)CSc4ccc(Cl)cc4)c3)nc2c1 | 6.01%
36 | CCc1ccc(NC(=O)c2ccccc2NC(=O)C2CCCO2)cc1 (centres unmarked) | -4.41%
37 | CCc1ccc(NC(=O)CSc2ccccn2)cc1 | 8.26%
38 | COc1ccc(-c2nc(N=Nc3ccc(O)cc3)n[nH]2)cc1 | 7.13%
39 | Cc1cc2c(N3CCCCC3C)ncnc2s1 (centres unmarked) | 1.16%
40 | COc1ccc(OC)c(/C=C/C(=O)Nc2ccc(OC)nc2)c1 | 6.55%
41 | Cc1nc(N)ncc1C(=O)Nc1ccccc1 | 9.29%
42 | CCOC(=O)C1(CCOc2ccccc2)CCN(Cc2ccc(O)c(OC)c2)CC1 | -69.9%
43 | COc1ccccc1-c1ccc(SCc2ccc([N+](=O)[O-])cc2)nn1 | 14.4%
44 | CSc1ccccc1NC(=O)CN(c1cccc(C)c1)S(C)(=O)=O | 7.26%
45 | CSCCC(=O)Nc1ccc(C(C)=O)cc1 | 8.92%
46 | COc1cccc(CNC(=O)C2CCN(S(=O)(=O)c3cccc4cccnc34)CC2)c1 | 7.36%

Row | Compound | hERG current change (%, negative = inhibition) at 1uM
47 | CCCNC(=O)[C@H](C)NC(=O)c1ccc(Br)cc1 | 8.02%
48 | CC1CCCC(NC(=O)CCS(=O)(=O)c2cc3c(cc2Cl)NC(=O)CO3)C1C (centres unmarked) | -9.05%
49 | Cc1ccc(NC(=O)CCS(=O)(=O)c2cccc3nonc23)cc1 | -2.26%
50 | C=C(C)[C@@H]1CC=C(CN2CCC(CCOC)(C(=O)OCC)CC2)CC1 | -15.4%
51 | NS(=O)(=O)c1cc(C(=O)OCC(=O)N2CCOCC2)ccc1Cl | 16.4%
52 | O=C(COC(=O)c1ccc(C(F)(F)F)cc1)Nc1cccc(S(=O)(=O)N2CCCCC2)c1 | 0.824%
53 | CCC(=O)NNc1ncnc2c1cnn2-c1cccc(C)c1 | 12.5%
54 | O=C1CN(O)C=C2N=c3ccccc3=C2N1c1ccc([N+](=O)[O-])cc1 | -3.04%
55 | O=C(Nc1ccc(F)cc1F)C1CCN(S(=O)(=O)c2cccnc2)CC1 | 20.2%
56 | CC1CCCCN1C(=S)NCCc1ccccc1 (centres unmarked) | 3.57%
57 | CCOc1ccc(C(=O)COC(=O)CC)cc1 | 0.968%
58 | O=C(NCc1ccc(OC(F)(F)F)cc1)C1CC(c2c(Cl)cccc2Cl)=NO1 (centres unmarked) | 14.7%
59 | C=CCn1cnc2scc(-c3ccc(OC)cc3)c2c1=O | 13.3%
60 | N#C/C(=N\Nc1ccc([N+](=O)[O-])cc1)C(N)=S | 11%
61 | CSc1nc2sc(-c3ccccc3)cc2c(=O)n1N | 14.4%
62 | CC(=O)CCc1ccc2oc(C(=O)O)c(C)c2c1 | -3.41%
63 | COc1ccccc1N1CCN(S(=O)(=O)c2cc(C(F)(F)F)cc(C(F)(F)F)c2)CC1 | 14.2%
64 | CN(C)Cc1c(C(=O)N/N=C/c2ccccc2OCc2ccc(F)cc2)nnn1-c1nonc1N | 14%
65 | CCCCCOC(=O)c1c(N)n(CCOC)c2nc3ccccc3nc12 | -17.5%
66 | COc1ccc(CNC(=O)CN2CCC(C(=O)c3ccc(OC)cc3)CC2)cc1 | -15.3%
67 | Cc1ccc(-n2nc(C)c3c(C)c(CCC(=O)NCc4ccccc4)c(C)nc32)cc1 | 14.3%
68 | CCOC(=O)c1sc2ncn(/N=C/c3ccc(O)cc3)c(=O)c2c1C | 18.3%
69 | COc1ccc(-c2csc(NC(C)c3nc4cc(C(=O)NCCCO)ccc4n3Cc3ccc(C)cc3)n2)cc1 (centres unmarked) | 8.77%

Row | Compound | hERG current change (%, negative = inhibition) at 1uM
70 | C(=C(c1ccccc1)c1ccccc1)c1ccccn1 | 12.8%
71 | CC(C)NC(=O)c1ccccc1NC(=O)Cc1ccc(Cl)cc1 | -0.471%
72 | COc1cc2c(cc1NC(=S)Nc1ccccc1C)oc1ccccc12 | 4.36%
73 | COc1cc([C@@H]2c3cc4c(cc3[C@H](O)[C@H]3COC(=O)[C@H]23)OCO4)cc(OC)c1OC | -14.6%
74 | O=C(CSc1nnc(NCc2ccccc2)s1)NC1CCS(=O)(=O)C1 (centres unmarked) | 13%
75 | CCOC(=O)C1CCCN(C(=O)c2cc3cc4ccc(OC)cc4nc3o2)C1 (centres unmarked) | 6.1%
76 | Cc1cc(C(=O)NC2CCCc3c2cnn3-c2cccc(C)c2C)c(C)o1 (centres unmarked) | 20.4%
77 | CC(NC(=O)c1ccc(C23CC4CC(CC(C4)C2)C3)cc1)C(=O)O (centres unmarked) | 8.38%
78 | O=C(NCC1CCCO1)C(c1cccs1)N(Cc1cccs1)C(=O)Cn1nnc(-c2cccs2)n1 (centres unmarked) | 9.7%
79 | CSc1sc(C(=O)OC(C)C)c2c1C(=O)CC(C)(C)C2 | 7.7%
80 | Cn1c(CN2CCOCC2)nnc1SCc1cccc(F)c1 | 6.21%
81 | COc1ccc(NC(=O)C/C(C)=N/NC(=O)c2cnccn2)cc1Cl | 26.2%
82 | Cc1ccc(C)c(OC(=O)c2cccc(S(=O)(=O)N3CCN(C)CC3)c2)c1 | 5.78%
83 | CC1CC(C)CN(S(=O)(=O)c2ccc3c(c2)NC(=O)C(C)C(=O)N3)C1 (centres unmarked) | 3.22%
84 | COc1ccc(CC(=O)N(C)CC(=O)Nc2ccccc2Cl)cc1S(=O)(=O)N1CCOCC1 | 9.77%
85 | CN(C)c1ccc(S(=O)(=O)NCC(=O)NCCC2=CCCCC2)cc1[N+](=O)[O-] | 2.6%
86 | CCn1nnnc1NC(=O)c1cc(Cl)c(OC)c(Cl)c1 | -2.59%
87 | Cc1ccc(CN2C(=O)CCC2C(=O)NCc2ccc3c(c2)OCO3)cc1 (centres unmarked) | 1.19%
88 | Cc1cc(C(=O)Nc2cccc3cccnc23)ccc1[N+](=O)[O-] | 7.74%
89 | CN(C)S(=O)(=O)c1cccc(NC(=O)CSc2cccc3cccnc23)c1 | 14.1%
